The whole screen tested about 48,000 compounds, of which about 550 (1.1%) were called active. Roughly 4% stayed inconclusive and do not appear here. Cut-off read from the data, not from the text of the source: active = potency below about 15 µM; inconclusive = mostly about 16 µM to 33 µM; inactive = weaker than that. The list shows a part of the results.
target: Lysosomal acid glucosylceramidase (Homo sapiens) (UniProt P04062); assay: Glucocerebrosidase; settings: purified enzyme, resorufin glucoside fluorescence (screen aimed at inhibitors), 20 min; series mostly up to 77 µM;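 note: the screen sought inhibitors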
Excerpt: NCGC Assay Overview: Beta-glucocerebrosidase catalyzes the hydrolysis of beta-glucocerebroside to glucose and ceramide. The inherited deficiency of beta-glucocerebrosidase results in Gaucher disease, which is characterized by a wide variety of symptoms including hepatosplenomegaly, anemia, thrombocytopenia, bony lesions and bone marrow infiltration with characteristic storage cells, known as Gaucher cells. There are also forms of the disorder affecting the central nervous system. Patients with the same genotypes can manifest with diverse clinical presentations and it is believed that improper folding and trafficking of beta-glucocerbrosidase may contribute to the phenotypes observed. Low molecular weight molecules, acting as chaperones, may potentially restore trafficking of misfolded beta-glucocerebrosidase from the endoplasmic reticulum to the lysosomes, thereby enhancing functional lysosomal beta-glucocerebrosidase activity. Using normal beta-glucocerebrosidase, an assay was developed to screen for small molecule inhibitors that could potentially act as molecular chaperones on the mutant forms [developed with NIH investigator Dr. Ellen Sidransky's laboratory]. Two pro-fluorescent substrates were chosen for two screens against a small molecule library. One beta-glucocerebrosidase assay used Resorufin beta-D-Glucopyranoside (Marker Gene Technology Inc.), generating a red fluorescent product. The second assay used Fluorescein di-beta-D-Glucopyranoside, generating a blue fluorescent product. […] The IC50 values of Conduritol B Epoxide, a known glucocerebrosidase inhibitor, were determined to be 87.5 uM and 117 uM, respectively. The use of two difference pro-fluorescent substrates in the screens helped to eliminate false positives. All compounds were screened in a titration series resulting in AC50s (e.g., IC50s or EC50s).
NCGC Assay Protocol Summary: Both enzyme and substrate were diluted in buffer composed of 50mM citric acid/KH2PO4, 10mM sodium taurocholate and 0.01% tween-20 at pH 5.9. The final concentration of the enzyme was 0.2 nM in both assays. The compound library was titrated in 7 to 15 concentrations for the primary screens with a final concentration ranging from 0.6 nM to 50 uM. This particular assay protocol is for the "red" substrate, and it was performed in 1536-well plate format as follows: Red fluorescence substrate assay: 2 uL enzyme 23 nL compound 1 uL substrate (final concentration of 30 uM) Incubate at room temperature (RT) for 20 minutes Read the plate in Viewlux plate reader (Ex=548(7) and Em=600(10)).
Potency is the fitted concentration of half-maximal effect.

UniProt P04062, sequence (P04062 whole entry, looked up): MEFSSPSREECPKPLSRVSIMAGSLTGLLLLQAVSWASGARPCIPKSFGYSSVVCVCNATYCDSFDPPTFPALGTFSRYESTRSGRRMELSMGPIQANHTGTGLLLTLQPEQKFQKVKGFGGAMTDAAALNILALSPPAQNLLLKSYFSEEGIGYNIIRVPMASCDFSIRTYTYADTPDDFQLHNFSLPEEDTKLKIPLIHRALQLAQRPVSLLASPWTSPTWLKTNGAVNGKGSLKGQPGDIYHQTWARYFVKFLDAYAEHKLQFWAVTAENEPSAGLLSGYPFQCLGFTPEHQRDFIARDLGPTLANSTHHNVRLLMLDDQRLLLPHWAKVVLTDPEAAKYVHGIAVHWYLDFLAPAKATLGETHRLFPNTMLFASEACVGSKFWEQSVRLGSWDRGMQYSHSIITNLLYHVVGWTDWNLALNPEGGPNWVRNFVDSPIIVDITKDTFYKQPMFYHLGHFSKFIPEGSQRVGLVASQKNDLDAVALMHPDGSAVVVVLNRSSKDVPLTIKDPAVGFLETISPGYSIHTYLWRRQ

| SMILES | Potency |
| --- | --- |
| Cc1ccc2nc(-c3cccc(NC(=O)c4ccco4)c3)[nH]c2c1 | inactive: > 76.9 µM |
| Clc1ccc(CSc2nnc(-c3cccnc3)n2Cc2ccco2)c(Cl)c1 | inactive: > 76.9 µM |
| CCCCN(CC)C(=O)C1CCC(=O)N(c2ccc(OC)cc2)C1c1ccc(OC)c(OC)c1 (stereo unspecified) | inactive: > 76.9 µM |
| COC(=O)c1sccc1NC(=O)C1C2C=CC(O2)C1C(=O)O (stereo unspecified) | inactive: > 76.9 µM |
| COc1cc(NC(=O)c2c(F)cccc2F)nc(OC)n1 | inactive: > 76.9 µM |
| CCCOc1ccc(N2C(=O)CC(N3CCC(c4nncn4CC)CC3)C2=O)cc1 (stereo unspecified) | inactive: > 76.9 µM |
| NC(=O)CSC1=Nc2ccccc2C2=NC(CC(=O)NCc3cccs3)C(=O)N12 (stereo unspecified) | inactive: > 76.9 µM |
| CCCCSc1nc2c(cnn2-c2ccc(Cl)cc2)c(=O)[nH]1 | inactive: > 76.9 µM |
| O=C(CSc1nnc(-c2ccco2)n1CC1CCCO1)NC1CCCC1 (stereo unspecified) | inactive: > 76.9 µM |
| Cc1c(C(=O)NCc2ccc3c(c2)OCO3)oc2ccc(S(=O)(=O)N3CCC(C)CC3)cc12 | inactive: > 76.9 µM |
| Cc1ccc(CNC(=O)CCc2nc3ccccc3c(=O)[nH]2)cc1 | inactive: > 76.9 µM |
| COc1cc(OC)cc(C(=O)NCc2nc(-c3ccccc3)no2)c1 | inactive: > 76.9 µM |
| O=C(O)CCN1C(=O)NC2(CCCC2)C1=O | inactive: > 76.9 µM |
| CC(C)C(c1nnnn1C1CCCC1)N1c2ccccc2CC1C (stereo unspecified) | inactive: > 76.9 µM |
| O=C(CN1C(=O)c2ccccc2C1=O)Nc1ccc2c(c1)OCO2 | inactive: > 76.9 µM |
| COC(=O)CCSc1nccn1Cc1ccccc1 | inactive: > 76.9 µM |
| COC(=O)CSc1nc2cc(OC)ccc2cc1C#N | inactive: > 76.9 µM |
| COc1ccc(N2C(=O)C3CC(C)=C(C)CC3C2=O)c(OC)c1 (stereo unspecified) | inactive: > 76.9 µM |
| C[C@H](NC(=O)Nc1ccc2c(c1)OCCO2)C(=O)O | inactive: > 76.9 µM |

| SMILES | Potency |
| --- | --- |
| COc1ccc(C(=O)N(CN2CCCC2=O)c2cc(C)on2)cc1OC | inactive: > 76.9 µM |
| N#CCCN1CCn2c1nc1ccccc12 | inactive: > 76.9 µM |
| Cc1cccc(-n2ncc3c(Nc4c(C)n(C)n(-c5ccccc5)c4=O)ncnc32)c1 | inactive: > 76.9 µM |
| Cc1ccc(S(=O)(=O)NCCCCC(NC(=O)OC(C)(C)C)C(=O)O)cc1 (stereo unspecified) (tested in a mixture with another compound) | inactive: > 76.9 µM |
| COC(=O)c1ccccc1N1C(=O)[C@@H]2C(c3ccc(F)cc3)=NO[C@@H]2C1=O | inactive: > 76.9 µM |
| CC(=O)N1CCC(N(C(=O)Nc2ccc(C)c(C)c2)C2CCCC2)CC1 | inactive: > 76.9 µM |
| CCOc1ccccc1C(=O)N1CCC(n2nnc3cc(C)ccc32)CC1 | inactive: > 76.9 µM |
| COc1cccc(NC(=O)C2CC(=O)N=C(N)S2)c1 (stereo unspecified) | inactive: > 76.9 µM |
| CC1CCCCC12NC(=O)N(CC(=O)c1ccc[nH]1)C2=O (stereo unspecified) | inactive: > 76.9 µM |
| C=CCn1c(SCC(=O)Nc2c(C)cccc2C)nnc1-c1cnccn1 | inactive: > 76.9 µM |
| CCOc1ccc(CNC(=O)C2CCCN(S(C)(=O)=O)C2)cc1OC (stereo unspecified) | inactive: > 76.9 µM |
| Cc1oc(C(C)(C)C)cc1C(=O)NCC(=O)NCC(=O)O | inactive: > 76.9 µM |
| CCOc1ccc(N2CC(C(=O)Nc3cccc(C)c3C)CC2=O)cc1 (stereo unspecified) | inactive: > 76.9 µM |
| CCCC1(C(=O)OC)NC(c2cccc(F)c2)C2C(=O)N(CC)C(=O)C21 (stereo unspecified) | inactive: > 76.9 µM |
| O=C(Nc1ccc2c(c1)OCO2)N1CCN(S(=O)(=O)c2ccc(Cl)cc2)CC1 | inactive: > 76.9 µM |
| CCn1c(SCC(=O)Nc2nc(C)c(C)s2)nnc1-c1ccco1 | inactive: > 76.9 µM |
| Cc1ccc(-c2cc(-c3ccccc3)c(C#N)c(N)n2)o1 | inactive: > 76.9 µM |
| O=C(OCn1nnc2ccccc2c1=O)C1COc2ccccc2O1 (stereo unspecified) | inactive: > 76.9 µM |
| O=c1cc(N2CCC3(CC2)OCCO3)[nH]c(=O)n1C1CCCCC1 | inactive: > 76.9 µM |

| SMILES | Potency |
| --- | --- |
| Cc1cc(N(C)C)c(C#N)c(N2CCOCC2)n1 | inactive: > 76.9 µM |
| O=C(c1ccco1)N1CCN(C(c2ccccc2Cl)c2nnnn2CC2CCCO2)CC1 (stereo unspecified) | inactive: > 76.9 µM |
| Cc1ccc(S(=O)(=O)N2CCCC(C(=O)NCCc3ccc4c(c3)OCO4)C2)cc1 (stereo unspecified) | inactive: > 76.9 µM |
| COc1ccc(Cl)cc1NC(=O)COC(=O)CCNC(C)=O | inactive: > 76.9 µM |
| CCCn1c(SCC(=O)Nc2sc(C)c(C)c2C(=O)OCC)nc2c1c(=O)n(C)c(=O)n2C | inactive: > 76.9 µM |
| Cc1nc(CNS(=O)(=O)c2ccc(Oc3ccccc3)cc2)cs1 | inactive: > 76.9 µM |
| CN1CCCC(OC(=O)COc2ccccc2)C1 (stereo unspecified) | inactive: > 76.9 µM |
| Cc1cc(C)n(-c2nc3ccccc3nc2N2CCN(C(=O)c3ccc(Cl)cc3)CC2)n1 | inactive: > 76.9 µM |
| COc1ccccc1N1CCN(C(=O)Cn2nnc(-c3cccs3)n2)CC1 | inactive: > 76.9 µM |
| O=C(c1ccc(F)cc1)N(Cc1ccccc1)C1CCS(=O)(=O)C1 (stereo unspecified) | inactive: > 76.9 µM |
| CN(C)c1nc(N)nc(CSc2ncc(Cl)cc2Cl)n1 | inactive: > 76.9 µM |
| N#CCSc1nc2ccc(N3CCCCC3)cc2c(=O)n1Cc1ccccc1 | active: 15.2 µM |
| COc1ccc(NC(=O)CCn2nc(C)cc2C)cc1 | inactive: > 76.9 µM |
| Cc1nc2c(cnn2-c2ccc(Cl)cc2)c(=O)n1-c1ccc2c(c1)OCCO2 | inactive: > 76.9 µM |
| Cc1nnc(SCC(=O)c2c(N)n(C)c(=O)n(C)c2=O)[nH]c1=O | inactive: > 76.9 µM |
| CN1C(=O)CC2(CC(=O)N(Cc3ccccc3)C2)C1=O (stereo unspecified) | inactive: > 76.9 µM |
| COc1ccccc1N1CCN(C/C(O)=C(\C#N)c2nc(-c3ccccc3)cs2)CC1 | inactive: > 76.9 µM |
| CCC(=O)N1CCc2cc(S(=O)(=O)NCCC(=O)N3CCN(c4ccccn4)CC3)ccc21 | inactive: > 76.9 µM |

From PubChem BioAssay AID360 (National Center for Advancing Translational Sciences (NCATS), 2006)
